Experimental data: article PMC4336329 (PLoS ONE, 2015)
The campaign covered roughly 310,000 compounds. About 14,000 (4.5%) showed an effect of 50% or more. The effect is printed as a negative number. The list shows a part of the results.

Target: human ether-à-go-go-related gene (hERG) potassium channel (human, UniProt Q12809)
Experiment: primary screen, population patch clamp on CHO cells stably expressing hERG
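Further: peak tail current of the secondary pulse compared with the same well before compound.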

Chain of human ether-à-go-go-related gene (hERG) potassium channel (Q12809 whole entry, looked up): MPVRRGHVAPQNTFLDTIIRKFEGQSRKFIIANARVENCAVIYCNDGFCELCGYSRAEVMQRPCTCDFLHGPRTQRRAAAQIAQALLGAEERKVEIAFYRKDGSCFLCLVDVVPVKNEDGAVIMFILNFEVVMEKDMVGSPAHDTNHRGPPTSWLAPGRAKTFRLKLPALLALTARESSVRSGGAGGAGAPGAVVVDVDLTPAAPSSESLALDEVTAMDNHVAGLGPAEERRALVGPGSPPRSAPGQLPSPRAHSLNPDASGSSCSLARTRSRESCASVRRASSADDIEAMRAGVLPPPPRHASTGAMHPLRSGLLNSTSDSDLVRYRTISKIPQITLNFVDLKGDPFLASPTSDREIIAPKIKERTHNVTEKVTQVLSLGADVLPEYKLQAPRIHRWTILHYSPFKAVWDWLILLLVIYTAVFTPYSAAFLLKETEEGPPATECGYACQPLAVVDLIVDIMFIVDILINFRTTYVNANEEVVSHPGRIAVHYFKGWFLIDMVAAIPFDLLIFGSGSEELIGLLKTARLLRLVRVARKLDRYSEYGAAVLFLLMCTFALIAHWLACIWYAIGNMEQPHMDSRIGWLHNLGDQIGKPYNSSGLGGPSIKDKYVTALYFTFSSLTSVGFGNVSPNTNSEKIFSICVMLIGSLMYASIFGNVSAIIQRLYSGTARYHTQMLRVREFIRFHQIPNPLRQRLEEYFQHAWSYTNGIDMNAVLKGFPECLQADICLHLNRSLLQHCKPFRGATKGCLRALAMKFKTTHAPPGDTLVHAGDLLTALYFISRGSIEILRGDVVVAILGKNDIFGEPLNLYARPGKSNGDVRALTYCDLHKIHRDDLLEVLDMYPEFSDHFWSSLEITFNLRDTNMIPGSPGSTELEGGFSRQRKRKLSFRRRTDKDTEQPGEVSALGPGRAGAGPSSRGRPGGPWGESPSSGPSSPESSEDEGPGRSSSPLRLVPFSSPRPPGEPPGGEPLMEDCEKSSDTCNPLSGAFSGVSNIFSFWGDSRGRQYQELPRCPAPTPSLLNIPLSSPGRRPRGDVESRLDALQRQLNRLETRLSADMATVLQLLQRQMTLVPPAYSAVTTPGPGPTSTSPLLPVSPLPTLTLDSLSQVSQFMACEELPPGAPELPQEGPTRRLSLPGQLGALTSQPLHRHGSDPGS

Compound | hERG current change (%, negative = inhibition) at 10uM
CC1=CC2(O)OCCN(CCO)C2=CC1=O (centres unmarked) | 1.48%
Cc1ccc2sc(N(CCN(C)C)C(=O)c3ccc4ccccc4c3)nc2c1C.Cl | 18.7%
O=C(Nc1ccc(N2CCN(C(=O)c3ccco3)CC2)cc1)c1ccco1 | 20.7%
C/C(=N\NC(=O)c1ccc2nc[nH]c2c1)c1ccc([N+](=O)[O-])cc1 | -19.1%
Cc1ccc(C)c(Cn2nc(-c3cc(C)ccc3C)ccc2=O)c1 | -3.14%
CC(C)NC(=O)c1ccccc1NC(=O)/C=C/c1ccc([N+](=O)[O-])cc1 | -18.8%
CCC(C)(C)n1nnnc1C(c1cc(OC)c(OC)c(OC)c1)N1CCN(c2ccccc2)CC1 (centres unmarked) | -8.58%
Br.Cc1ccccc1OCC(=O)NN1Cc2ccccc2C1=N | -0.416%
Cc1csc(NC(=O)CSc2nnc(-c3ccoc3C)n2CCc2ccccc2)n1 | -59.7%
CC1(c2nnc(-c3cccc(Cl)c3)o2)CC(c2cccnc2)=NO1 (centres unmarked) | -9.06%
CCOC(=O)C1=C(O)CSC1=Nc1ccc(C)cc1 | -4.86%
CCCCCn1c(-c2ccco2)nc2nc3ccccc3nc21 | -67.5%
COc1ccc(NC(=O)c2cc3c(Cl)nc4ccccc4c3s2)cc1OC | 19.5%
CC(C)(C)OC(=O)NCCCCCNC(=O)c1[nH]cnc1C(=O)Nc1cccc(Cl)c1 | 6.09%
S=C(NCCSCc1ccccc1Cl)Nc1ccccc1 | -7.59%
CC(=O)N1CCN(CC(=O)Nc2ccccc2C(=O)NCc2ccc(C)cc2)CC1 | -25.4%
Nc1cccc(C#Cc2ccc3c(=O)c4ccccc4oc3c2)c1 | 11.6%
Cn1sc(=O)c2cc(S(=O)(=O)NC3CC3)ccc21 | -16.2%
COc1ccc(-n2ncc3c(N4CCN(Cc5ccccc5)CC4)ncnc32)cc1 | -4.91%

Compound | hERG current change (%, negative = inhibition) at 10uM
c1cnc(NCCNc2ncccn2)nc1 | 9.05%
COc1ccc(C)cc1S(=O)(=O)N1CCN(C(=O)c2ncoc2-c2cccc(F)c2)CC1 | 13.8%
NNC(=O)CNc1cccc(Br)c1 | 11.7%
N#Cc1c(NC(=O)C2CC=CCC2C(=O)O)sc2c1CCCCCC2 (centres unmarked) | -25.1%
O=C(Nc1nnc(C2CC2)s1)c1ccco1 | 0.189%
CCN(CC)c1ccc(C(=O)N/N=C/c2ccccc2OC(F)F)cc1 | 14.4%
O=C(C1CCCC1)N1CCC(CC2CC(c3cccc(Br)c3)=NO2)(C(=O)NCC2CCCCC2)CC1 (centres unmarked) | -49.9%
COc1ccc(Br)cc1CN1CCCCCC1 | -16.3%
CCn1c(=O)c(C(=O)NNS(=O)(=O)c2ccc(Cl)cc2)c(O)c2ccccc21 | -13.5%
Cc1scc(C(=O)N/N=C/c2ccc(Cl)s2)c1C | -3.55%
C=CCOc1cccc(C2/C(=C(/O)c3ccc(Cl)cc3)C(=O)C(=O)N2CCN2CCOCC2)c1 (centres unmarked) | -0.107%
Cc1ccc(NC(=O)C2CCN(S(C)(=O)=O)CC2)cc1C | 3.29%
CCC1(CC)NC(=O)N(Cc2nc3ccccc3s2)C1=O | 7.3%
Cc1ccc2c(c1)nnn2C1CCN(CC(=O)Nc2ccccc2N2CCOCC2)CC1 | -69.8%
O=C(CN1CCN(S(=O)(=O)c2ccc(Br)cc2)CC1)N/N=C/c1ccc(Cl)c([N+](=O)[O-])c1 | -17.9%
COC(=O)c1ccccc1NC(=O)CCC(=O)N1CCSc2ccccc21 | -12.1%
O=C(Nc1ccccc1)N1CCc2c([nH]c3ccccc23)C1C(F)(F)F (centres unmarked) | 4.42%
Nc1nc(SCc2ccccc2)n[nH]1 | -1.03%
O=C(O)CN1C(=O)/C(=C\C(Br)=C\c2ccccc2)SC1=S | 11.3%

Compound | hERG current change (%, negative = inhibition) at 10uM
Cc1cc(=O)[nH]c(SCC(=O)NNC(=O)Cc2ccccc2)n1 | -2.15%
COC(=O)c1ccccc1NC(=S)NC(NC(=O)c1ccccc1[N+](=O)[O-])C(Cl)(Cl)Cl (centres unmarked) | -1.4%
C/C(CC(=O)NCCCN1CCOCC1)=N\NC(=O)COc1ccc(C)cc1 | 13.9%
COc1ccc(Sc2ncnc3onc(C)c23)cc1 | 4.3%
Cc1cccnc1Nc1ncnc(N)c1[N+](=O)[O-] | -0.167%
COc1cc2[nH]c3c(N4CCN(c5ccc(Cl)cc5)CC4)ncnc3c2cc1OC | -4.15%
C=CCn1c(=O)c(C(=O)Nc2ccc(C)cc2)c(O)c2ccccc21 | 30.8%
COc1cc(C(=O)NCCCCc2ccccc2)cc(OC)c1OC | 0.271%
CCCc1cc(=O)[nH]c(SCC(=O)N(C)C2CCCCC2)n1 | 9.03%
CC(C)(O)C#Cc1ccc(CN2CCN(C3CCCCC3)C(CCO)C2)s1 (centres unmarked) | 16.7%
Cc1cc(=O)[nH]c(N/N=C/c2cn(CCC#N)nc2-c2ccccc2)n1 | 16.7%
COc1cccc(-c2nc(=S)c3c(n2CCCO)CCCC3)c1 | 3.34%
CSCCC(NC(=O)c1ccccc1Cl)C(=O)Nc1cccc(S(=O)(=O)N2CCCC2)c1 (centres unmarked) | 11.5%
O=C(COC(=O)c1cc(S(=O)(=O)N2CCOCC2)ccc1O)Nc1cc(S(=O)(=O)N2CCCC2)ccc1Cl | 9.55%
COC(=O)C1CC(=O)c2ccsc2C1 (centres unmarked) | 1.13%
C=CCOc1cccc(C(=O)/C=C2/C(=O)Nc3ccccc32)c1 | 21.9%
CCOC(=O)c1cc(-c2ccccc2)sc1NC(=O)C(C)N1C(=O)NC(C)(c2ccc(Cl)cc2)C1=O (centres unmarked) | 4.01%
COc1ccc(NC(=O)CCCc2ccccc2)cc1OC | 11.3%
